Some of the results follow. Single values are uncertain, as repeats are few or missing.
Tests used:
Assay in all cases: cell count relative to DMSO control; melanoma cells; higher = more viable cells
Details in all cases: library dose: standard library concentration; 72 h
G361 = system: G361
IPC-298 = system: IPC-298
IST-MEL1 = system: IST-MEL1
LB2518-MEL = system: LB2518-MEL
LOXIMVI = system: LOXIMVI
MEL-HO = system: MEL-HO
MZ2-MEL = system: MZ2-MEL
MeWo = system: MeWo
RPMI7951 = system: RPMI7951
RVH-421 = system: RVH-421
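Further: cells treated in 1,536-well plates, then fixed and DAPI-stained, with nuclei counted from automated high-throughput microscope images.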

Row | SMILES | cell count (G361) [%] | cell count (IPC-298) [%] | cell count (IST-MEL1) [%] | cell count (LB2518-MEL) [%] | cell count (LOXIMVI) [%] | cell count (MEL-HO) [%] | cell count (MZ2-MEL) [%] | cell count (MeWo) [%] | cell count (RPMI7951) [%] | cell count (RVH-421) [%]
1 | C[C@]12O[C@H](C[C@]1(O)CO)n1c3ccccc3c3c4c(c5c6ccccc6n2c5c31)CNC4=O [Lestaurtinib] + O=C(Oc1ccc([N+](=O)[O-])cc1)N1CCC(C(O)(c2ccc3c(c2)OCO3)c2ccc3c(c2)OCO3)CC1 [JZL184] (first compound 0.02 µM, partner dose 5 µM) | 66 | 74.3 | 96.7 | 63.1 | 82.2 | 81.5 | 111 | 67.4 | 68.1 | 85.3
2 | C[As](C)SC[C@H](NC(=O)CC[C@H](N)C(=O)O)C(=O)NCC(=O)O [Darinaparsin] + CCN(CC)CCCCNc1ncc2cc(-c3cc(OC)cc(OC)c3)c(NC(=O)NC(C)(C)C)nc2n1 [PD173074] (first compound 2 µM, partner dose 0.5 µM) | 93.9 | 100 | 109 | 150 | 111 | 95.5 | 97.6 | 100 | 134 | 96.8
3 | Cn1cc(C2=C(c3cn(C4CCN(Cc5ccccn5)CC4)c4ccccc34)C(=O)NC2=O)c2ccccc21 [Enzastaurin] + COC(=O)c1sccc1S(=O)(=O)Nc1ccc(Nc2ccccc2)cc1OC [GSK0660] (first compound 4 µM, partner dose 5 µM) | 75.2 | 92.4 | 87.5 | 55.3 | 102 | 103 | 83.3 | 96.3 | 70.2 | 63.5
4 | N.N.[Cl][Pt][Cl] [cisplatin] + CC(=O)c1c(C)c2cnc(Nc3ccc(N4CCNCC4)cn3)nc2n(C2CCCC2)c1=O [palbociclib] (first compound 8 µM, partner dose 0.2 µM) | 74.2 | 81.7 | 82.2 | 74.7 | 63.1 | 80.5 | 82.3 | 67.7 | 55.7 | 70.1
5 | C[As](C)SC[C@H](NC(=O)CC[C@H](N)C(=O)O)C(=O)NCC(=O)O [Darinaparsin] + O=C(O)C(=O)Nc1sc2c(c1C(=O)O)CCNC2 [TCS401] (first compound 2 µM, partner dose 8.33333 µM) | 79.8 | 90.8 | 87.8 | 76.5 | 98.6 | 91.7 | 99.5 | 73.7 | 74.5 | 100
6 | Cn1cc(C2=C(c3cn(C4CCN(Cc5ccccn5)CC4)c4ccccc34)C(=O)NC2=O)c2ccccc21 [Enzastaurin] + O=C(CCCCCCC(=O)Nc1ccccc1)NO [vorinostat] (first compound 4 µM, partner dose 0.4 µM) | 72.8 | 84.5 | 108 | 89.9 | 80.5 | 91.6 | 103 | 97.5 | 55.9 | 100
7 | Cn1cc(C2=C(c3cn(C4CCN(Cc5ccccn5)CC4)c4ccccc34)C(=O)NC2=O)c2ccccc21 [Enzastaurin] + Cn1c(=O)n(-c2ccc(C(C)(C)C#N)cc2)c2c3cc(-c4cnc5ccccc5c4)ccc3ncc21 [NVP-BEZ235] (first compound 4 µM, partner dose 0.02 µM) | 67.3 | 88.7 | 81.2 | 74.8 | 87.4 | 85.7 | 106 | 78.2 | 70 | 84.7
8 | C[C@]12O[C@H](C[C@]1(O)CO)n1c3ccccc3c3c4c(c5c6ccccc6n2c5c31)CNC4=O [Lestaurtinib] + Cc1cc(SCc2sc(-c3ccc(C(F)(F)F)c(F)c3)nc2C)ccc1OCC(=O)O [GW0742] (first compound 0.02 µM, partner dose 10 µM) | 90.5 | 81.7 | 112 | 79.7 | 96.2 | 95.3 | 100 | 78.2 | 107 | 120
9 | C[C@]12O[C@H](C[C@]1(O)CO)n1c3ccccc3c3c4c(c5c6ccccc6n2c5c31)CNC4=O [Lestaurtinib] + CN(c1ncccc1CNc1nc(Nc2ccc3c(c2)CC(=O)N3)ncc1C(F)(F)F)S(C)(=O)=O [PF562271] (first compound 0.02 µM, partner dose 0.4 µM) | 67.4 | 60 | 82.9 | 65.8 | 91 | 72.5 | 86.2 | 68.5 | 62.7 | 78.3
10 | C[C@]12O[C@H](C[C@]1(O)CO)n1c3ccccc3c3c4c(c5c6ccccc6n2c5c31)CNC4=O [Lestaurtinib] + CC1(C)NC(=O)N(c2ccc([N+](=O)[O-])c(C(F)(F)F)c2)C1=O [nilutamide] (first compound 0.02 µM, partner dose 5 µM) | 87.4 | 84.4 | 95.4 | 75.3 | 95 | 88.7 | 135 | 77.4 | 110 | 103
11 | N.N.[Cl][Pt][Cl] [cisplatin] + CC(C)CCN1c2nc(Nc3cc(F)c(O)c(F)c3)ncc2N(C)C(=O)C1C [BID1870] (first compound 8 µM, partner dose 1 µM) | 66.9 | 75.5 | 82.2 | 102 | 254 | 67.7 | 98.9 | 77.3 | 74.5 | 64.3
12 | Cn1cc(C2=C(c3cn(C4CCN(Cc5ccccn5)CC4)c4ccccc34)C(=O)NC2=O)c2ccccc21 [Enzastaurin] + O=C(Nc1ccccc1)c1cc([N+](=O)[O-])ccc1Cl [GW9662] (first compound 4 µM, partner dose 10 µM) | 63.8 | 82.5 | 95.9 | 44.4 | 73.3 | 82.1 | 91.2 | 67.8 | 45.5 | 44.6
13 | C[As](C)SC[C@H](NC(=O)CC[C@H](N)C(=O)O)C(=O)NCC(=O)O [Darinaparsin] + CC(C)(C)c1cnc(CSc2cnc(NC(=O)C3CCNCC3)s2)o1 [SNS-032] (first compound 2 µM, partner dose 0.05 µM) | 69.9 | 101 | 73.5 | 72.2 | 48.9 | 86.5 | 91.1 | 69.2 | 16.3 | 85.8
14 | N.N.[Cl][Pt][Cl] [cisplatin] + Cc1cc(N2CCOCC2)cc2[nH]c(-c3c(NC[C@@H](O)c4cccc(Cl)c4)cc[nH]c3=O)nc12 [BMS536924] (first compound 8 µM, partner dose 1 µM) | 91.3 | 99.3 | 89.3 | 71 | 97.3 | 96 | 112 | 90.1 | 67.8 | 102
15 | C[C@]12O[C@H](C[C@]1(O)CO)n1c3ccccc3c3c4c(c5c6ccccc6n2c5c31)CNC4=O [Lestaurtinib] + C=CCNC1=C2C[C@@H](C)C[C@H](OC)[C@H](O)[C@@H](C)/C=C(\C)[C@H](OC(N)=O)[C@@H](OC)/C=C\C=C(/C)C(=O)NC(=CC1=O)C2=O [Tanespimycin] (first compound 0.02 µM, partner dose 0.01 µM) | 52.2 | 55.7 | 67 | 30.9 | 159 | 64 | 74.2 | 45.3 | 21.6 | 75.5
16 | Cn1cc(C2=C(c3cn(C4CCN(Cc5ccccn5)CC4)c4ccccc34)C(=O)NC2=O)c2ccccc21 [Enzastaurin] + CCCCCCCCCCCC1=C(O)C(=O)C=C(O)C1=O [Embelin] (first compound 4 µM, partner dose 6 µM) | 66.5 | 79 | 63 | 78.8 | 103 | 73.1 | 82.9 | 102 | 70.2 | 60.7
17 | Cn1cc(C2=C(c3cn(C4CCN(Cc5ccccn5)CC4)c4ccccc34)C(=O)NC2=O)c2ccccc21 [Enzastaurin] + Cn1cc(/C=C2\C(=O)Nc3cccnc32)c2ccccc21 [GW441756] (first compound 4 µM, partner dose 2 µM) | 58.2 | 79.3 | 84.9 | 49.7 | 107 | 88 | 82.8 | 91.3 | 46.6 | 51.6
18 | Cn1cc(C2=C(c3cn(C4CCN(Cc5ccccn5)CC4)c4ccccc34)C(=O)NC2=O)c2ccccc21 [Enzastaurin] + Oc1cc(-c2nc(-c3ccccc3)[nH]c2-c2ccncc2)ccc1Cl [L779450] (first compound 4 µM, partner dose 1 µM) | 74 | 93.7 | 87.4 | 64.7 | 104 | 99.9 | 133 | 82.9 | 83.3 | 84
19 | N.N.[Cl][Pt][Cl] [cisplatin] + N#Cc1c(O)c2c(-c3ccc(-c4ccccc4O)cc3)csc2[nH]c1=O [A769662] (first compound 8 µM, partner dose 10 µM) | 92.7 | 104 | 96.4 | 89.8 | 95.2 | 86.4 | 105 | 85.9 | 84.9 | 96.5
20 | Cn1cc(C2=C(c3cn(C4CCN(Cc5ccccn5)CC4)c4ccccc34)C(=O)NC2=O)c2ccccc21 [Enzastaurin] + O=C(Oc1ccc([N+](=O)[O-])cc1)N1CCC(C(O)(c2ccc3c(c2)OCO3)c2ccc3c(c2)OCO3)CC1 [JZL184] (first compound 4 µM, partner dose 5 µM) | 61.9 | 98.9 | 77.8 | 58 | 94.1 | 86.5 | 81.4 | 85 | 44.3 | 37
21 | Cn1cc(C2=C(c3cn(C4CCN(Cc5ccccn5)CC4)c4ccccc34)C(=O)NC2=O)c2ccccc21 [Enzastaurin] + C=CCNC1=C2C[C@@H](C)C[C@H](OC)[C@H](O)[C@@H](C)/C=C(\C)[C@H](OC(N)=O)[C@@H](OC)/C=C\C=C(/C)C(=O)NC(=CC1=O)C2=O [Tanespimycin] (first compound 4 µM, partner dose 0.01 µM) | 62 | 83.5 | 72.6 | 57.1 | 83.6 | 90.5 | 97.4 | 70.6 | 23.4 | 74.5
